log2 surviving fraction data for 40 compounds are collected here from the supplement of paper PMC8047034.

Counter-ions that a name gives are not always drawn. The list shows a part of the results. Repeats are few or missing, and single values can be far off.

One experiment relates to Ov4Carbo. The experiment can be described thus: log2 surviving fraction (library drug vs vehicle, or drug + carboplatin vs carboplatin alone; relative to plate median); ovarian cancer lines: OVCAR4 is platinum-sensitive and Ov4Carbo platinum-resistant; higher = more cell survival. The following applies: library drug concentration 10 µM; 7 days; carboplatin co-treatment 0 µM.
In the case of `CNCCc1ccccn1` [Betahistine 2HCl], the log2 surviving fraction was -0.734.
On the same count and under the same terms, as for `CC(C(=O)O)c1ccc(-c2ccccc2)c(F)c1` (stereo not given) [Flurbiprofen (Ansaid)], the figure is 0.414; as for `CCCCCCCCCCCCCCCCCCCCCCO` [Docosanol (Abreva)], 0.23; as for `CC=CC1=C(C(=O)O)N2C(=O)[C@@H](NC(=O)[C@H](N)c3ccc(O)cc3)[C@H]2SC1` [Cefprozil hydrate (Cefzil)], -0.167.
Turning to `CN1C(C(=O)Nc2ccccn2)=C(O)c2sccc2S1(=O)=O` [Tenoxicam (Mobiflex)], the log2 surviving fraction is 1.01.
Consider `COc1cc(C(=O)NS(=O)(=O)c2ccccc2C)ccc1Cc1cn(C)c2ccc(NC(=O)OC3CCCC3)cc12` [Zafirlukast (Accolate)], for which the log2 surviving fraction amounted to 0.224.
Still for that read-out and setting: as for `Fc1ccc([C@@H]2CCNC[C@H]2COc2ccc3c(c2)OCO3)cc1` [Paroxetine HCl], the figure is -5.5; as for `CCCCCCCCCCCCCCCC[N+](C)(C)C` [Cetrimonium Bromide], -7.14; as for `COc1c2occc2cc2ccc(=O)oc12` [Methoxsalen (Oxsoralen)], 0.421.
Still for that read-out and setting: as for `O=C1OC(CN2CCOCC2)CN1/N=C/c1ccc([N+](=O)[O-])o1` (stereo not given) [Furaltadone HCl], the figure is -0.583.

The same experiment, now with this note: library drug concentration 10 µM; 7 days; carboplatin co-treatment 5 µM.
Turning to `O=C(CCCN1CC=C(n2c(=O)[nH]c3ccccc32)CC1)c1ccc(F)cc1` [Droperidol], the log2 surviving fraction turned out to be 0.728.
Same read-out and setting: as for `CCOC(=O)C1=C(COCCN)NC(C)=C(C(=O)OC)C1c1ccccc1Cl` (stereo not given) [Amlodipine besylate (Norvasc)], the figure is -2.03; as for `CC[N+](CC)(CC)CCOc1cccc(OCC[N+](CC)(CC)CC)c1OCC[N+](CC)(CC)CC` [Gallamine triethiodide (Flaxedil)], -0.134; as for `CN(C)CCc1c[nH]c2ccc(Cn3cncn3)cc12` [Rizatriptan Benzoate (Maxalt)], 0.364.
Still for that read-out and setting: as for `CN(C)C(=N)NC(=N)N` [Metformin hydrochloride (Glucophage)], the figure is 1.15; as for `CC1(C)O[C@@H]2C[C@H]3[C@@H]4CCC5=CC(=O)C=C[C@]5(C)[C@H]4[C@@H](O)C[C@]3(C)[C@]2(C(=O)CO)O1` [Desonide], -0.163; as for `O[C@@H]1CO[C@H]2[C@@H]1OC[C@@H]2O` [Isosorbide], -1.35.
Consider `CC(=O)NS(=O)(=O)c1ccc(NC(=O)c2ccccc2C(=O)O)cc1` [Phthalylsulfacetamide], for which the log2 surviving fraction came out at 1.04.
On the same count and under the same terms, as for `Oc1ccc(OC2CCCCO2)cc1` (stereo not given) [Deoxyarbutin], the figure is -1.7; as for `O=P1(NCCCl)OCCCN1CCCl` (stereo not given) [Ifosfamide], 0.16; as for `CC[C@@H]1/C=C(\C)C[C@H](C)C[C@H](OC)[C@H]2O[C@@](O)(C(=O)C(=O)N3CCCC[C@H]3C(=O)O[C@H](/C(C)=C/[C@@H]3CC[C@H](Cl)[C@H](OC)C3)[C@H](C)[C@@H](O)CC1=O)[C@H](C)C[C@@H]2OC` [Pimecrolimus], -1.04.
Same read-out and setting: as for `N=C(N)NC(=O)c1nc(Cl)c(N)nc1N` [Amiloride hydrochloride dihydrate], the figure is 0.283.
Turning to `CC(=O)O[C@H]1C[C@@H]2CC[C@@H]3[C@H](CC[C@@]4(C)[C@H]3C[C@H]([N+]3(C)CCCCC3)[C@@H]4OC(C)=O)[C@@]2(C)C[C@@H]1[N+]1(C)CCCCC1` [Pancuronium (Pavulon)], the log2 surviving fraction came out at 0.0165.
With `COC(=O)CCc1ccc(OCC(O)CNC(C)C)cc1` (stereo not given) [Esmolol HCl], the log2 surviving fraction is 0.0664.
For `CN1[C@@H]2CC[C@H]1C[C@@H](OC(c1ccccc1)c1ccccc1)C2` [Benztropine mesylate], the log2 surviving fraction is -1.62.
On to `CCN1CCN(C(=O)N[C@@H](C(=O)N[C@@H]2C(=O)N3C(C(=O)O)=C(CSc4nnnn4C)CS[C@H]23)c2ccc(O)cc2)C(=O)C1=O` [Cefoperazone (Cefobid)], for which the log2 surviving fraction was determined as 0.159.
Still for that read-out and setting: as for `CN1CCC(=C2c3ccccc3CCc3cccnc32)CC1` [Azatadine dimaleate], the figure is -0.913; as for `CCc1c2c(nc3ccc(OC(=O)N4CCC(N5CCCCC5)CC4)cc13)-c1cc3c(c(=O)n1C2)COC(=O)[C@]3(O)CC` [Irinotecan HCl Trihydrate (Campto)], -6.73; as for `CCCCc1oc2ccccc2c1C(=O)c1cc(I)c(OCCN(CC)CC)c(I)c1` [Amiodarone HCl], -2.46.
As for `NNC(=O)c1ccncc1` [Isoniazid (Tubizid)], the log2 surviving fraction was -0.813.
As for `CCCCN1CCCCC1C(=O)Nc1c(C)cccc1C` (stereo not given) [Bupivacaine hydrochloride (Marcain)], the log2 surviving fraction was -0.307.
The same measure, in the same setting: as for `CN(C)CCCOc1nn(Cc2ccccc2)c2ccccc12` [Benzydamine Hydrochloride], the figure is -0.405.
On to `Nc1ccn([C@H]2CC[C@@H](CO)O2)c(=O)n1` [Zalcitabine], for which the log2 surviving fraction was 0.218.
The same measure, in the same setting: as for `CCCCCN(C)CCC(O)(P(=O)(O)O)P(=O)(O)O` [Ibandronate sodium], the figure is -0.467; as for `C[C@]12CCC(=O)C=C1[C@@H]1C[C@@H]1[C@H]1[C@@H]3[C@@H]4C[C@@H]4[C@@]4(CCC(=O)O4)[C@@]3(C)CC[C@@H]12` [Drospirenone], -0.3.
In the case of `CC(C)(O/N=C(\C(=O)N[C@@H]1C(=O)N2C(C(=O)[O-])=C(C[n+]3ccccc3)CS[C@H]12)c1csc(N)n1)C(=O)O` [Ceftazidime Pentahydrate], the log2 surviving fraction was found to be 0.527.
The same measure, in the same setting: as for `C=C(NC(=O)C(=C)NC(=O)c1csc(C2=N[C@@H]3c4csc(n4)[C@H]4NC(=O)c5csc(n5)[C@H]([C@](C)(O)[C@@H](C)O)NC(=O)[C@H]5CSC(=N5)/C(=C/C)NC(=O)[C@H]([C@@H](C)O)NC(=O)c5csc(n5)[C@]3(CC2)NC(=O)[C@H](C)NC(=O)C(=C)NC(=O)[C@H](C)NC(=O)[C@H]([C@@H](C)CC)N[C@@H]2C=Cc3c([C@H](C)O)cc(nc3[C@H]2O)C(=O)O[C@@H]4C)n1)C(N)=O` [Thiostrepton], the figure is -7.33.
Same read-out and setting: as for `NCC[C@H](O)C(=O)N[C@@H]1C[C@H](N)[C@@H](O[C@H]2O[C@H](CN)[C@@H](O)[C@H](O)[C@H]2O)[C@H](O)[C@H]1O[C@H]1O[C@H](CO)[C@@H](O)[C@H](N)[C@H]1O` [Amikacin hydrate], the figure is 1.45; as for `O=C1CCc2ccc(OCCCCN3CCN(c4cccc(Cl)c4Cl)CC3)cc2N1` [Aripiprazole (Abilify)], -1.16; as for `CCCc1nc(C(C)(C)O)c(C(=O)OCc2oc(=O)oc2C)n1Cc1ccc(-c2ccccc2-c2nnn[nH]2)cc1` [Olmesartan medoxomil (Benicar)], 0.29.
Still for that read-out and setting: as for `CNCCc1ccccn1` [Betahistine 2HCl], the figure is -0.59; as for `CC(C(=O)O)c1ccc(-c2ccccc2)c(F)c1` (stereo not given) [Flurbiprofen (Ansaid)], -0.101.
Regarding `CCCCCCCCCCCCCCCCCCCCCCO` [Docosanol (Abreva)], the log2 surviving fraction was 0.382.
For the compound `CC=CC1=C(C(=O)O)N2C(=O)[C@@H](NC(=O)[C@H](N)c3ccc(O)cc3)[C@H]2SC1` [Cefprozil hydrate (Cefzil)], the log2 surviving fraction is -0.458.
The same measure, in the same setting: as for `CN1C(C(=O)Nc2ccccn2)=C(O)c2sccc2S1(=O)=O` [Tenoxicam (Mobiflex)], the figure is -0.00188.
Consider `COc1cc(C(=O)NS(=O)(=O)c2ccccc2C)ccc1Cc1cn(C)c2ccc(NC(=O)OC3CCCC3)cc12` [Zafirlukast (Accolate)], for which the log2 surviving fraction was determined as 0.338.
The same measure, in the same setting: as for `Fc1ccc([C@@H]2CCNC[C@H]2COc2ccc3c(c2)OCO3)cc1` [Paroxetine HCl], the figure is -4.62; as for `CCCCCCCCCCCCCCCC[N+](C)(C)C` [Cetrimonium Bromide], -6.48.
On to `COc1c2occc2cc2ccc(=O)oc12` [Methoxsalen (Oxsoralen)], for which the log2 surviving fraction worked out at 1.32.
On the same count and under the same terms, as for `O=C1OC(CN2CCOCC2)CN1/N=C/c1ccc([N+](=O)[O-])o1` (stereo not given) [Furaltadone HCl], the figure is -1.42.
